# Experimental data reported in the supplement of paper PMC3334620.
# The full ranking holds about 33,000 sequences; the median of “E-score (-0.5 to 0.5)” is about -0.035, and the highest 2% start at about 0.35. This is one part of the list.
# Target: T1, Pdr3 (UniProt P33200)
# T1 sequence: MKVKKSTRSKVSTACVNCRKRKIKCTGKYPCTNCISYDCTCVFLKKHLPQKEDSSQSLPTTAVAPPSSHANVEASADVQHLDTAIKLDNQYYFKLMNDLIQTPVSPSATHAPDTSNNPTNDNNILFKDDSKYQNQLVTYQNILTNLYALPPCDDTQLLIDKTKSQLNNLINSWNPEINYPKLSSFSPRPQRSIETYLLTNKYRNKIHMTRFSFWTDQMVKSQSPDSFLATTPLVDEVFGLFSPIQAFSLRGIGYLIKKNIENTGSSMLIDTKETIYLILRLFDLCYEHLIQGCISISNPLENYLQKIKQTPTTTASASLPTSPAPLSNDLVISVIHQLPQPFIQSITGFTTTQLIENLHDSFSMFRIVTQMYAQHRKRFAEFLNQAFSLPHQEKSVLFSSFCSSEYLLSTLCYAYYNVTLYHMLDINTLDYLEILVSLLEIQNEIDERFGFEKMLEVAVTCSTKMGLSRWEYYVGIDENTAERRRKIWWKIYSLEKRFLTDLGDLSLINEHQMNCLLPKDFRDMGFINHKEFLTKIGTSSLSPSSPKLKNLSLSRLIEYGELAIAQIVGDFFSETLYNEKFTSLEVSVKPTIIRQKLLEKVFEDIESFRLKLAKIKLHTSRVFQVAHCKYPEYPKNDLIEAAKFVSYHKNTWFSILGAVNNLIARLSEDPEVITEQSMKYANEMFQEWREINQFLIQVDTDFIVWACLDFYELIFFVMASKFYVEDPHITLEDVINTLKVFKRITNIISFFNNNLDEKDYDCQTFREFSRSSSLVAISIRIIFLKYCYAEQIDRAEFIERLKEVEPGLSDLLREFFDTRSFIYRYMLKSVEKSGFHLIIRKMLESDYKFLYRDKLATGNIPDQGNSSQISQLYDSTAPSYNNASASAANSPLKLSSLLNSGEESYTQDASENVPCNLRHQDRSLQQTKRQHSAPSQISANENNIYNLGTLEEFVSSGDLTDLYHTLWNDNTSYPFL
# Test: PBM E-score (8-mer binding enrichment) (E-score (-0.5 to 0.5)); higher = stronger / more preferred TF binding; most listed sequences are background and not binding sites
# Conditions: protein concentration: 200 nM; construct: GST-full length
# In short: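 Yeast transcription factors carrying a GST tag, as full-length proteins or DNA-binding domains, were produced by PURExpress in vitro transcription/translation. About 100-200 nM protein was applied to universal all-10-mer Agilent arrays, double-stranded by primer extension on fresh or once-stripped slides. Bound protein was detected with fluorescent anti-GST, and scans were normalised with masliner. The Universal PBM Analysis Suite gave each ungapped eight-base word, pooled with its reverse complement, an E-score, a modified Wilcoxon-Mann-Whitney statistic.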
row,Sequence,PBM E-score
1,CACTAGCC,0.0786
2,ATGTGCAA,-0.102
3,CACAAAAA,0.0906
4,AAAGTTAG,0.0776
5,ATGTCGCC,-0.0448
6,CATACCAG,-0.0428
7,GCTGGTTA,-0.123
8,ACTGTACG,-0.224
9,CAAGCCAG,-0.185
10,AGCCTATC,-0.154
11,CAAATGGA,-0.0634
12,CCGTACAA,-0.00282
13,CGAGCCAG,0.206
14,ATAACGTG,-0.107
15,ACACTGGT,-0.211
16,AATCCACC,-0.0507
17,CAGTTGCG,0.0668
18,AAGCTAAA,-0.187
19,ACAGTTTG,0.00196
20,ATTTTGAG,-0.0977
21,CGGTCACC,0.0786
22,AGCGGGCA,-0.048
23,ACTATACA,-0.0136
24,CGAGGGTA,-0.0561
25,TAATATGA,0.114

row,Sequence,PBM E-score
1,CGTAATGA,-0.131
2,ATAAGGAT,-0.118
3,ACAGCTTA,-0.166
4,CTTGAAGA,-0.267
5,ATTGCGTA,-0.191
6,AAGTGGCC,0.0392
7,AAGTACTA,0.0806
8,AATGACGT,-0.0588
9,ATAGCTAT,-0.0482
10,CATCCGCG,0.359
11,TGATCCAA,-0.0351
12,CGGCGTCC,0.234
13,CGAGCCCA,-0.112
14,AGTCGCCC,-0.199
15,ACCGCTAC,-0.0939
16,AAGTCATT,-0.138
17,CAATGAGC,-0.00488
18,TATAAAAA,0.0695
19,AGAGGTAG,-0.21
20,GCTGGTAA,-0.182
21,CGGCATCA,0.204
22,CTCGAGAA,-0.149
23,GTAAAACA,-0.231
24,AGTAGTTA,-0.0357
25,AGTCGGAT,0.219

row,Sequence,PBM E-score
1,CGCTATGA,-0.0676
2,ATGCTAGG,-0.156
3,AACTCTCC,0.0377
4,AGACATGC,-0.0916
5,TGCGTGAA,0.0465
6,CGAAACAG,0.0313
7,CAGCTGTC,-0.105
8,AGGTGCAT,-0.034
9,GCTACCAC,-0.16
10,AACACCGA,0.14
11,AAGGGGTA,-0.24
12,ATGCATGA,0.0809
13,CTAGACTC,-0.324
14,AAGCCTAA,-0.183
15,ATACCGTC,0.135
16,AAGTCTCC,-0.0741
17,CATGAGCA,0.0587
18,CAATTGTG,-0.131
19,CGCAGATC,-0.0483
20,CGACTACG,-0.0144
21,CTGATACA,-0.132
22,AGCCACAC,-0.0874
23,AAACTCAT,0.161
24,CGGCGCCG,0.463
25,TAAACTCA,0.0377

row,Sequence,PBM E-score
1,CGAGTCAA,-0.19
2,TAACATCA,-0.255
3,ACCCAGGG,-0.0849
4,GAATCCGC,0.296
5,TAGGACGA,-0.0994
6,CCGACCGC,-0.0222
7,ACGCGTCA,-0.0423
8,GTCTGACA,0.159
9,AGCTCGCC,0.0497
10,GCATCACA,-0.0216
11,GTCTTGCA,-0.066
12,AATCTACT,0.0902
13,GCATCGAA,-0.2
14,GCCTACAC,-0.175
15,CTGCGGGA,0.114
16,ATTCGTGG,-0.038
17,AGACCGTG,-0.107
18,ACGTGAGC,-0.0523
19,CACATCGG,-0.0207
20,GGCACCTA,0.00429
21,AGCATCTA,-0.0841
22,AGAGAATA,-0.0195
23,AAACATTG,-0.0839
24,AGTAATTC,0.153
25,AGTCGAGC,-0.215

row,Sequence,PBM E-score
1,TCCCTTCA,-0.283
2,ACACCCAG,-0.0474
3,AATAAGGG,-0.119
4,CTATCCAA,-0.229
5,AACATCGG,0.145
6,ATTTAAGC,0.0284
7,CGAATCCA,0.0811
8,TGTATACA,-0.0124
9,GTGCATTA,-0.0778
10,GCAGCCTA,-0.227
11,AGCTGACG,-0.142
12,GGACCAAC,0.107
13,CGACATGA,0.0638
14,TAGCTTCA,-0.278
15,CTACTTCC,0.144
16,TAGTGATA,-0.251
17,CGAGGTAC,-0.0877
18,AAATGGGC,0.0103
19,ATATTCTA,0.055
20,CTTCATTA,-0.0304
21,GACGTAGC,-0.228
22,ACGCTACG,-0.084
23,CTGTCCTC,-0.0393
24,GTCAGGTA,-0.0512
25,ATAGAGCA,-0.0482

row,Sequence,PBM E-score
1,CGTAAACA,0.0488
2,GTATGTGA,-0.0803
3,CATATGTA,-0.206
4,GTTGCTGA,-0.0444
5,CCTTTTCC,0.0495
6,ACAAACAC,0.129
7,GGTCAACA,0.0754
8,CATTTTGC,0.0786
9,CATCAACC,-0.0565
10,AACCAGCG,0.0704
11,AGGGATAC,-0.128
12,CAACACCA,-0.194
13,GGTGATGA,0.0492
14,GGAGATGA,0.094
15,AAACGAAC,0.0483
16,CGCTACCA,0.051
17,TACGAGCA,-0.105
18,GATTCCTA,0.0205
19,ACTAGAAA,-0.213
20,AACCCAAC,-0.0685
21,TAGTCCCA,-0.187
22,ACTTTGAC,-0.0538
23,ATGAAGCA,-0.152
24,CTCAATAC,-0.0754
25,GTTCATGA,0.122

row,Sequence,PBM E-score
1,AGCGCATG,-0.0684
2,CATTAGCG,-0.00416
3,AGCAGAAA,0.00936
4,ATGCTCAG,0.0157
5,AGAGATGA,-0.055
6,GCAATGAC,-0.258
7,CGGTAGTC,0.0361
8,TCCCACAA,-0.0275
9,CCATTAAG,-0.0621
10,AAAACATT,-0.114
11,AGCATCGA,-0.0594
12,AACATCTT,-0.0399
13,TGTGCGAA,-0.184
14,ATGCAAGA,-0.134
15,GAAGTCTA,-0.208
16,ACCAGGCG,-0.0145
17,AGGATAAT,-0.156
18,GCTTTGGA,0.0987
19,AACATCGC,0.0335
20,CAACTCCA,0.0238
21,AATTGGAT,-0.0847
22,AAACACGC,0.0967
